# Measured values published in PubChem BioAssay AID1671194 (National Center for Advancing Translational Sciences (NCATS), 2021).
# Several values for one entry are separate records, joined by “and”; a condition that tells them apart may be missing. Equal entries are not always repeated. The whole screen tested about 140,000 compounds, of which about 240 (0.17%) were called active. This list was built around the results that the source calls inconclusive (neither active nor inactive); the mix of calls is not that of the screen. Calls come from the whole dose curve; as a rule, active = well fitted inhibition curve with a large enough effect; inconclusive = small, poorly fitted or top-dose-only effect; inactive = no such curve, though single readings can be large or run the other way. Potencies of inconclusive entries are doubtful fits and often do not repeat.
# Assay: Primary qHTS assay for inhibitors of alpha-synuclein gene (SNCA) expression; note: nearly all actives have a fitted effect of over 45% in size;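 for activity change, negative = inhibition: plate controls were DMSO cells for no effect and cell-free wells for full effect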
# Details: HEK-293 SNCA-luciferase knock-in, luminescence, 24 h; activity change, negative = inhibition: at 57.2 µM (top of the series) unless noted
# Potency is the fitted concentration of half-maximal effect; tags give direction and shape of the fitted curve.
SMILES,Potency,"activity change, negative = inhibition"
COc1ccc(-n2c(/C=C/c3ccccc3F)nc3cc(OC)c(OC)cc3c2=O)cc1Cl,"inconclusive: 10 µM [inhibitor, partial curve, poor fit]",–
CCOc1ccc(C(=O)Nc2cc(-c3nc4ccccc4o3)ccc2C)cc1Cl,"inconclusive: 1 µM [inhibitor, partial curve, poor fit]",–
CC1CCN(S(=O)(=O)c2ccc3c(c2)oc(=O)n3CC(=O)NCc2ccc(F)cc2)CC1,"inconclusive: 39.8 µM [inhibitor, single point]",–
CCc1ccccc1NC(=O)c1nnn(-c2ccc(F)cc2)c1C,–,inactive: 75.3%
CC(C)ON([C@@H](C(=O)NO)C(C)C)S(=O)(=O)c1ccc(-c2ccccc2)cc1,"inconclusive: 5.01 µM [inhibitor, full curve, poor fit]",–
Clc1cccc(CN2CC[C@H](c3nc4ccccc4s3)C2)c1,–,inactive: 119% [at 87.6 µM]
CCCc1cnc2c(c1SCC(=O)N(C)c1ccccc1)c(=O)n(C)c(=O)n2C,"inconclusive: 39.8 µM [inhibitor, single point]",–
CCS(=O)(=O)N(C1CC1)C1CCOC2(CCN(C(=O)Cc3cccc(F)c3)CC2)C1 (centres undefined),"inconclusive: 44.7 µM [inhibitor, single point]",–
Cc1ccn2c(Nc3ccccc3C)c(-c3ccccn3)nc2c1,"inconclusive: 39.8 µM [inhibitor, single point]",–
N#CC1CCN(C(=O)c2nc(-c3cccnc3)c3cnccn23)CC1,"inconclusive: 2.82 µM [inhibitor, partial curve, poor fit]",–
Cc1cccc(-n2ncc3c(Nc4ccc(Oc5ccc(Cl)cc5)cc4)ncnc32)c1,"inconclusive: 0.398 µM [inhibitor, single point]",–
CC(C)c1ccc(CC(=O)N2CCCc3ncc(C(=O)Nc4cccc(Cl)c4)cc32)cc1,"inconclusive: 39.8 µM [inhibitor, single point]",–
Cc1cccc(CC(=O)N2CCC[C@H](n3c(=O)n(Cc4ccccc4)c4cccnc43)C2)c1,–,inactive: -5.93%
Cc1ccc(-c2cccc(CN3CCCC(N[S+](=O)([O-])c4ccccc4)C3)c2)cc1Cl (centres undefined),–,inactive: 28.9%
Cc1cccc(CN2CCCC(O)(CNCc3cccc(C)n3)C2=O)c1 (centres undefined),–,inactive: 7.49%
CN(C(=O)CN1C(=O)NC2(CCCCC2)C1=O)c1ccccc1,"inconclusive: 0.708 µM [inhibitor, full curve, poor fit]",–
Cc1nc2cccnc2n1CC1CCCN(S(=O)(=O)c2ccc(F)cc2)C1 (centres undefined),"inconclusive: 6.31 µM [inhibitor, single point]",–
CCc1ccc(-n2c(SCc3ccccc3F)nc3[nH]ncc3c2=O)cc1,"inconclusive: 39.8 µM [inhibitor, single point]",–
Cc1ccc(C(=O)N2CCC3(CC2)N(c2ccccc2)C(=O)CS3(=O)=O)s1,–,inactive: -28%
COc1ccccc1NC(=O)Cn1c(=O)n(-c2cccc(C(C)=O)c2)c(=O)c2c3c(sc21)CN(C(C)=O)CC3,"inconclusive: 39.8 µM [inhibitor, single point]",–
COCC1CN(S(=O)(=O)c2ccc(C)cc2)CC12CCOCC2 (centres undefined),–,inactive: 4.67%
COc1cccc(S(=O)(=O)N2CCC(Oc3ccc(C(N)=O)cn3)CC2)c1,"inconclusive: 39.8 µM [inhibitor, partial curve, poor fit]",–

SMILES,Potency,"activity change, negative = inhibition"
CCN1CCN(C(=O)c2cnn(-c3ccc(F)cc3)c2-n2cccc2)CC1,"inconclusive: 0.631 µM [inhibitor, full curve, poor fit]",–
O=C1NCCc2[nH]c(-c3ccncc3)cc21,active: 3.41 µM,–
O=C1c2[nH]nc(-c3ccccc3O)c2C(c2ccc(Cl)cc2)N1Cc1ccco1 (centres undefined),"inconclusive: 10 µM [inhibitor, partial curve]",–
Cc1ccc(-c2ccc3nnc(CNC(=O)Cc4ccc(Cl)cc4)n3n2)cc1,"inconclusive: 25.1 µM [inhibitor, partial curve, poor fit]",–
COc1cc2c(cc1OC)C(C[C@H]1CN(S(=O)(=O)c3ccc(F)cc3)CC[C@H]1CC(=O)O)=NCC2,–,inactive: 2.86%
CCC(=O)N1CCN(c2nc3c(s2)CC(C(=O)Nc2ccc(F)cc2)CC3)CC1 (centres undefined),"inconclusive: 39.8 µM [inhibitor, single point]",–
COc1ccc(C2Cn3nnc(C(=O)N4CCN(C(=O)Cc5ccccc5Cl)CC4)c3CO2)cc1 (centres undefined),–,inactive: 4.4%
Cc1ccc(NC(=O)c2cc(S(=O)(=O)N3CCOCC3)c(Cl)cc2Cl)cc1,"inconclusive: 7.94 µM [inhibitor, full curve, poor fit]",–
CN(Cc1ccccc1)Cc1cn([C@H]2CO[C@H]3[C@@H]2OC[C@@H]3NCC2CCCCC2)nn1,"inconclusive: 12.6 µM [inhibitor, partial curve]",–
O=C(NC[C@H]1OC[C@@H](NC2CCC2)[C@@H]1O)c1ccncc1,–,inactive: 15.7% [at 87.6 µM]
Cc1ccc(C)c(-n2nc(-c3c(C)nc4scc(CC(=O)NCc5ccco5)n4c3=O)cc2C)c1,"inconclusive: 39.8 µM [inhibitor, single point]",–
CN(C)C(=O)c1ccc(-c2ccc3ncnc(N(C)Cc4ccco4)c3c2)cc1,"inconclusive: 1.58 µM [inhibitor, full curve, poor fit]",–
Cc1ccc(S(=O)(=O)N2CCN(C3CCN(Cc4cccnc4)C3=O)CC2)cc1C (centres undefined),"inconclusive: 17.8 µM [inhibitor, partial curve, poor fit]",–
COc1cccc(-c2c(C(=O)NCc3ccccc3Cl)nc3sccn23)c1,–,inactive: -10.2%
COc1ncc(CN2CCc3c(n(CCOc4ccccc4)n(-c4ccccc4)c3=O)C2)cn1,–,inactive: 15.1%
O=S(=O)(NCCc1csc(-c2ccc(F)cc2)n1)c1ccc(Cl)cc1,"inconclusive: 39.8 µM [inhibitor, single point]",–
O=[S+]([O-])(Nc1cccnc1)c1ccc2c(c1)OCCN(Cc1ccsc1)C2,–,inactive: -0.0707% [at 87.6 µM]
O=C(NCc1ccccc1)C1CCC(=O)N1C1CCNCC1 (centres undefined),"inconclusive: 39.8 µM [inhibitor, single point]",–
Cc1cn2nc(C(=O)NCc3ccccc3F)cc2c(N2CCSCC2)n1,"inconclusive: 2.82 µM [inhibitor, full curve]",–
CC(C)NC(=O)c1ccc(-c2nnc3ccc(NC(=O)C4CCC4)cn23)cc1,–,inactive: 11.3%
O=C(N[C@@H]1CCOC[C@H]1OCCO)C1(S(=O)(=O)c2ccccc2)CC1,"inconclusive: 3.16 µM [inhibitor, single point]",–
CC1(c2ccc(Cl)cc2)CC(C)(C)N(C(=O)c2ccccc2)c2ccccc21 (centres undefined),"inconclusive: 3.98 µM [inhibitor, partial curve, poor fit]",–

SMILES,Potency,"activity change, negative = inhibition"
Cc1ccc(-n2c(C3CCN(C(=O)CCc4ccccc4)CC3)n[nH]c2=O)cc1,–,inactive: 23.2%
CNCc1cn(C[C@H]2O[C@@H](CC(=O)N3CCC[C@@H]3COC)[C@H](O)[C@@H]2O)nn1,–,inactive: -7.78% [at 87.6 µM]
CCOC(=O)c1c(C)c(-c2ccccc2)n(CC(=O)Nc2cc(OC)cc(OC)c2)c1C,"inconclusive: 14.1 µM [inhibitor, partial curve]",–
COc1ccc2c(c1)c(C1=C(c3c[nH]c4ccccc34)C(=O)NC1=O)cn2CCCN(C)C,–,inactive: -12%
CN(C)c1ccc(C(=O)N[C@H]2C[C@@H](c3nc(-c4ccc5c(c4)OCO5)no3)N(C)C2)cc1,–,inactive: 8.46%
COc1cc(-c2onc(C)c2C(=O)NCCc2ccc(F)cc2)cc(OC)c1OC,–,inactive: -4.05%
CCc1c(C)cc(C(=O)N[C@@H]2[C@@H](Cc3ccccc3)[C@H]3OCC[C@@H]23)c(=O)n1C,–,inactive: 6.26%
COc1ccccc1-c1cc2c(ccn2C)c(C(=O)NCc2c(C)cc(C)[nH]c2=O)n1,–,inactive: 18.4% [at 87.6 µM]
Cc1n[nH]c(C)c1CNC(=O)c1ccc(N2CC3CC(C2)[C@H]2CCCC(=O)N2C3)nc1 (some centres undefined),"inconclusive: 39.8 µM [inhibitor, single point]",–
CCCOc1ccccc1C(=O)N1CCC(c2nc3ccccc3s2)CC1,"inconclusive: 39.8 µM [inhibitor, single point]",–
C1CCC(COCCc2noc(C3CNC3)n2)C1,"inconclusive: 17.8 µM [inhibitor, partial curve, poor fit]",–
CN(C)CC=CC(=O)Nc1cc2c(Nc3ccc(F)c(Cl)c3)ncnc2cc1O[C@H]1CCOC1,"inconclusive: 12.1 µM [inhibitor, full curve, poor fit]",–
COc1cccc(-c2nc3c(c(SCc4ccccc4)n2)Cc2c(CO)cnc(C)c2O3)c1,"inconclusive: 3.55 µM [inhibitor, single point]",–
O=C(Nc1ccc([C@@H](O)[C@H]2COCC(=O)N2Cc2ccccc2F)cc1)c1cccc(F)c1,"inconclusive: 11.2 µM [inhibitor, partial curve, poor fit]",–
Cc1[nH]cnc1CN1CCNc2cc(-c3ccccc3)ncc2C1,"inconclusive: 56.2 µM [inhibitor, single point]",–
COc1ccc(C(=O)NCc2nnc3ccc(-c4ccc(Cl)cc4)nn23)c(OC)c1,–,inactive: 1.78%
Cc1ccc(Nc2c(-c3ccc(C)cc3)nc3cnccn23)cc1,"inconclusive: 12.6 µM [inhibitor, partial curve]",–
Cc1cc(C(F)(F)F)nn1CC(=O)N1CCC2(CC1)CC(CC(=O)NCc1ccccc1)CCO2 (centres undefined),"inconclusive: 12.6 µM [inhibitor, partial curve, poor fit]",–
Cc1ccc(C(=O)N2Cc3ccccc3OC3(CCN(C(C)C)CC3)C2)cn1,–,inactive: -4.77%
CCN(CC)C(=S)SSC(=S)N(CC)CC,"inconclusive: 15.2 µM [inhibitor, full curve, poor fit] and inconclusive: 15.8 µM [inhibitor, partial curve, poor fit]",–
